Laboratory results from PubChem BioAssay AID1768 (National Center for Advancing Translational Sciences (NCATS), 2009).
About 620 (0.23%) of roughly 270,000 compounds were called active. The inconclusive results got no clear call from the source; some entries with a clear call stand among them for comparison. Calls follow the shape of the dose curve; as a rule, active = well fitted inhibition curve with a large enough effect in the polarisation, with a control signal flat (not every such curve was filed as active); inconclusive = small, poorly fitted or top-dose-only effect, or effect the other way, or a change in a side signal; inactive = no such curve, though single readings can be large or run the other way; the % refers to the polarisation. Where the call is inconclusive, the potency comes from a doubtful curve fit. “Side channel” marks fits to a control or component signal instead of the main read-out.

biological target: Menin (Homo sapiens) (UniProt O00255); test: qHTS Assay for Inhibitors Targeting the Menin-MLL Interaction in MLL Related Leukemias: Competition With Texas Red Labeled MLL-derived Mutant Peptide; details: fluorescence polarization; FP activity change, negative = inhibition: at 61.6 µM (top of the series); as to FP activity change, negative = inhibition: % of control where 0% means no effect
Potency is read from the fitted curve at half-maximal effect; tags tell the direction and shape of the fitted curve or compound fluorescence and quenching.

Sequence of UniProt O00255 (O00255 whole entry, looked up): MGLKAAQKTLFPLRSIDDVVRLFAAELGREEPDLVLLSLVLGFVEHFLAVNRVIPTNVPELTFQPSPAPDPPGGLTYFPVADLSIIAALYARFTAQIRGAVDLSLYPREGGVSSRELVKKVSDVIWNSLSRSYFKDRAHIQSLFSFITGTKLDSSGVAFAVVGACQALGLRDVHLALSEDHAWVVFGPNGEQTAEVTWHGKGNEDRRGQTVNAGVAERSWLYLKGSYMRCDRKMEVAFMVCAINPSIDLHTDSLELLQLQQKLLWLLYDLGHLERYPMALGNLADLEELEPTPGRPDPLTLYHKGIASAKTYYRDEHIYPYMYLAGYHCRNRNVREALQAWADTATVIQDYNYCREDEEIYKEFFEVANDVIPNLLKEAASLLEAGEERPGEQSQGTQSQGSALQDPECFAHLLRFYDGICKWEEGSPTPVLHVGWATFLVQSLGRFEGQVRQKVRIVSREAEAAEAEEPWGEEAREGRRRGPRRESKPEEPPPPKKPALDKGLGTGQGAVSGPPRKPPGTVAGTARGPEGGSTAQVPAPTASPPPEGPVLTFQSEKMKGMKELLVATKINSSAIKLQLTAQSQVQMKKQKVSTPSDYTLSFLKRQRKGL

SMILES	Potency	FP activity change, negative = inhibition
COc1cc(/C=C(\C#N)C(=O)c2c[nH]c3ccccc23)cc(OC)c1O	inconclusive: 25.1 µM [quencher, side channel, single point]	–
Cc1c(C)n(C(=O)CN2CCN(c3ccccc3)CC2)c2ccccc12	inconclusive: 12.6 µM [fluorescent, side channel, partial curve, poor fit]	–
CCOc1ccc(NC(=O)CN(C)Cc2cc(=O)n3c(-c4ccccc4)csc3n2)cc1OCC	inconclusive: 22.4 µM [quencher, side channel, single point]	–
CCC(=O)c1ccc(N2CCN(C(=O)c3ccccc3Br)CC2)c(F)c1	inconclusive: 11.2 µM [fluorescent, side channel, partial curve]	–
O=c1cc(-c2ccccc2)oc2c1ccc1ccccc12	–	inactive: 4.86% [at 24.8 µM]
CCc1ccc2c(CN(C)Cc3ccccc3OC)cc(=O)oc2c1	inconclusive: 25.1 µM [inhibitor, partial curve]	–
CNCc1ccccc1Sc1cc(O)ccc1O	–	inactive: 0.315%
CC(C)c1ccc(NC(=O)C(=O)C2C(=O)Nc3ccccc32)cc1 (stereo unspecified)	inconclusive: 31.6 µM [quencher, side channel, single point]	–
COc1ccc(N2CSC3=C(C#N)C(c4cc(OC)c(OC)cc4OC)CC(=O)N3C2)c(OC)c1 (stereo unspecified)	inconclusive: 12.6 µM [quencher, side channel, partial curve]	–
CC1C(=O)C(C)C(c2cccs2)NC1c1cccs1 (stereo unspecified)	inconclusive: 8.91 µM [inhibitor, single point]	–
Cc1ccc([N+](=O)[O-])c(OCCN2CCC(Cc3ccccc3)CC2)c1	inconclusive: 12.6 µM [fluorescent, side channel, partial curve]	–
CCCN(CCC)CCCNC(=O)c1cc2c(-c3ccc(OC)c(OC)c3)nn(C)c2s1	inconclusive: 12.6 µM [inhibitor, partial curve]	–
Cc1ccccc1C(=O)N1CCN(S(=O)(=O)c2ccccc2)CC1	–	inactive: 3.14%
COc1ccc2oc(-c3ccc(NC(=O)c4ccc(N5CCOCC5)c([N+](=O)[O-])c4)cc3)nc2c1	inconclusive: 3.55 µM [quencher, side channel, full curve]	–
COc1ccc2[nH]c(=O)c(CN(C(=O)C3CCCO3)c3cccc(C)c3)cc2c1 (stereo unspecified)	inconclusive: 39.8 µM [inhibitor, single point]	–
Cc1ccc(-c2nn(-c3ccccc3)cc2/C=C2\SC(=S)N(CCCCCC(=O)O)C2=O)o1	inconclusive: 10 µM [quencher, side channel, partial curve]	–
